{"source": "the supplement of paper PMC5499739", "note": "Whole data set: some 16,000 sequences, median “Z-score” near -0.37, cut for the highest 2% near 3.2. This is one part of the list."}
{"tested_on": "RBM10 RRM1-ZnF (GST-tagged construct)", "experiment": "RNAcompete 7-mer binding Z-score; higher = stronger binding preference", "how_it_was_run": "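In 1 ml Hepes pH 7.8 buffer with KCl, NaCl, glycerol, DTT, BSA and glutathione Sepharose beads, GST-tagged RBM10 constructs (20 pmol) were incubated for 30 min at 4°C with 1.5 nmol of a designed pool of 241 399 RNAs up to 41 nt. Four 2-min washes at 4°C followed, and bound RNA was detected by microarray hybridisation. Heptamer motif enrichment was expressed as a one-sided Z-score across probes containing each motif.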"}
{"sequence": "GGGCUUA", "RNAcompete 7-mer binding Z-score": 0.742}
{"sequence": "UCAGGAG", "RNAcompete 7-mer binding Z-score": 0.959}
{"sequence": "UAAAACG", "RNAcompete 7-mer binding Z-score": -0.178}
{"sequence": "CACGUUG", "RNAcompete 7-mer binding Z-score": -0.155}
{"sequence": "UCGUUGU", "RNAcompete 7-mer binding Z-score": -0.578}
{"sequence": "GGAGACU", "RNAcompete 7-mer binding Z-score": 0.79}
{"sequence": "CGCUUUU", "RNAcompete 7-mer binding Z-score": -0.941}
{"sequence": "CCCUAAU", "RNAcompete 7-mer binding Z-score": -0.698}
{"sequence": "UUAGUGC", "RNAcompete 7-mer binding Z-score": -0.409}
{"sequence": "UUCGAAG", "RNAcompete 7-mer binding Z-score": -0.197}
{"sequence": "ACGUGUA", "RNAcompete 7-mer binding Z-score": 0.00404}
{"sequence": "GGGCCAG", "RNAcompete 7-mer binding Z-score": 1.03}
{"sequence": "UUCGUGA", "RNAcompete 7-mer binding Z-score": -0.496}
{"sequence": "UAUUCAU", "RNAcompete 7-mer binding Z-score": -0.49}
{"sequence": "UCUUAAC", "RNAcompete 7-mer binding Z-score": -0.889}
{"sequence": "GCCUCGC", "RNAcompete 7-mer binding Z-score": -0.448}
{"sequence": "UUUGCCG", "RNAcompete 7-mer binding Z-score": -0.685}
{"sequence": "CGUCCAC", "RNAcompete 7-mer binding Z-score": -0.72}
{"sequence": "ACACAGG", "RNAcompete 7-mer binding Z-score": 0.855}
{"sequence": "ACAGUAU", "RNAcompete 7-mer binding Z-score": -0.357}
{"sequence": "GAGCCCA", "RNAcompete 7-mer binding Z-score": -0.561}
{"sequence": "GGUCACG", "RNAcompete 7-mer binding Z-score": 0.647}
{"sequence": "AAAGUGU", "RNAcompete 7-mer binding Z-score": 0.413}
{"sequence": "CAAAGGG", "RNAcompete 7-mer binding Z-score": 2.23}
{"sequence": "GGACGUA", "RNAcompete 7-mer binding Z-score": 0.833}
{"sequence": "CGACGAG", "RNAcompete 7-mer binding Z-score": -0.0285}
{"sequence": "UUAAGCC", "RNAcompete 7-mer binding Z-score": -0.844}
{"sequence": "AUAGAAA", "RNAcompete 7-mer binding Z-score": 0.264}
{"sequence": "UUCAAUC", "RNAcompete 7-mer binding Z-score": -0.769}
{"sequence": "AGCUUUG", "RNAcompete 7-mer binding Z-score": -0.756}
{"sequence": "CGUGUUG", "RNAcompete 7-mer binding Z-score": 0.124}
{"sequence": "UCGCGCU", "RNAcompete 7-mer binding Z-score": -0.688}
{"sequence": "AUCGCGG", "RNAcompete 7-mer binding Z-score": 0.0463}
{"sequence": "CCUCGUU", "RNAcompete 7-mer binding Z-score": -0.798}
{"sequence": "GCCGAAU", "RNAcompete 7-mer binding Z-score": -0.792}
{"sequence": "CCUGAGC", "RNAcompete 7-mer binding Z-score": -0.464}
{"sequence": "CGUUUUG", "RNAcompete 7-mer binding Z-score": -0.422}
{"sequence": "GGCGCGA", "RNAcompete 7-mer binding Z-score": 0.439}
{"sequence": "AUUCUAA", "RNAcompete 7-mer binding Z-score": -0.782}
{"sequence": "AGACUAC", "RNAcompete 7-mer binding Z-score": -0.782}
{"sequence": "AUCUGCG", "RNAcompete 7-mer binding Z-score": -0.626}
{"sequence": "AGGUCGG", "RNAcompete 7-mer binding Z-score": 1.26}
{"sequence": "GGAGGUC", "RNAcompete 7-mer binding Z-score": 1.77}
{"sequence": "CAAACUG", "RNAcompete 7-mer binding Z-score": -0.457}
{"sequence": "UGGUGUC", "RNAcompete 7-mer binding Z-score": 0.807}
{"sequence": "UGUGAGU", "RNAcompete 7-mer binding Z-score": 0.472}
{"sequence": "ACGGAUG", "RNAcompete 7-mer binding Z-score": 1.77}
{"sequence": "GUGGCCG", "RNAcompete 7-mer binding Z-score": 0.485}
{"sequence": "GAUCGGG", "RNAcompete 7-mer binding Z-score": 2.27}
{"sequence": "CGCGAGU", "RNAcompete 7-mer binding Z-score": -0.337}
{"sequence": "AACUCAG", "RNAcompete 7-mer binding Z-score": -0.548}
{"sequence": "GUCAGGC", "RNAcompete 7-mer binding Z-score": 0.709}
{"sequence": "UAUAUCA", "RNAcompete 7-mer binding Z-score": -0.639}
{"sequence": "ACGCGGU", "RNAcompete 7-mer binding Z-score": 0.196}
{"sequence": "CCCUGAC", "RNAcompete 7-mer binding Z-score": -0.626}
{"sequence": "ACCAAUG", "RNAcompete 7-mer binding Z-score": -0.454}
{"sequence": "GCACAGA", "RNAcompete 7-mer binding Z-score": 0.0105}
{"sequence": "UCAUCUG", "RNAcompete 7-mer binding Z-score": -0.844}
{"sequence": "CGGGAUG", "RNAcompete 7-mer binding Z-score": 2.48}
{"sequence": "GAGACAC", "RNAcompete 7-mer binding Z-score": -0.0902}
{"sequence": "GUCUUUU", "RNAcompete 7-mer binding Z-score": -0.646}
{"sequence": "AAUACAU", "RNAcompete 7-mer binding Z-score": -0.292}
{"sequence": "AUGAAGG", "RNAcompete 7-mer binding Z-score": 2.96}
{"sequence": "AUGUCAG", "RNAcompete 7-mer binding Z-score": 0.03}
{"sequence": "AGCAUGU", "RNAcompete 7-mer binding Z-score": -0.269}
{"sequence": "UCCUUCU", "RNAcompete 7-mer binding Z-score": -0.789}
{"sequence": "CAAUUUC", "RNAcompete 7-mer binding Z-score": -0.857}
{"sequence": "UGUAUAC", "RNAcompete 7-mer binding Z-score": -0.327}
{"sequence": "AACACGC", "RNAcompete 7-mer binding Z-score": -0.425}
{"sequence": "UAUUAGU", "RNAcompete 7-mer binding Z-score": -0.314}
{"sequence": "GACGACA", "RNAcompete 7-mer binding Z-score": 0.0105}
{"sequence": "UUUGCUU", "RNAcompete 7-mer binding Z-score": -0.88}
{"sequence": "CUAACGU", "RNAcompete 7-mer binding Z-score": -0.626}
{"sequence": "ACCGUCU", "RNAcompete 7-mer binding Z-score": -0.873}
{"sequence": "UAUGUUU", "RNAcompete 7-mer binding Z-score": -0.253}
{"sequence": "AUGCCUG", "RNAcompete 7-mer binding Z-score": -0.698}
{"sequence": "CUUUCCC", "RNAcompete 7-mer binding Z-score": -0.798}
{"sequence": "UACCUUU", "RNAcompete 7-mer binding Z-score": -0.867}
{"sequence": "CUCAGGU", "RNAcompete 7-mer binding Z-score": -0.0447}
{"sequence": "UUUCGGC", "RNAcompete 7-mer binding Z-score": -0.587}
{"sequence": "AUCCAAG", "RNAcompete 7-mer binding Z-score": -0.591}
{"sequence": "CCAACCG", "RNAcompete 7-mer binding Z-score": -0.681}
{"sequence": "ACCGGCG", "RNAcompete 7-mer binding Z-score": -0.279}
{"sequence": "CAAGUGG", "RNAcompete 7-mer binding Z-score": 1.39}
{"sequence": "UUCAGCG", "RNAcompete 7-mer binding Z-score": -0.642}
{"sequence": "GAGGUCG", "RNAcompete 7-mer binding Z-score": 0.959}
{"sequence": "UUGUAGC", "RNAcompete 7-mer binding Z-score": -0.509}
{"sequence": "GUCCUAA", "RNAcompete 7-mer binding Z-score": -0.542}
{"sequence": "GAAGCAU", "RNAcompete 7-mer binding Z-score": 0.128}
{"sequence": "AGACUUC", "RNAcompete 7-mer binding Z-score": -0.899}
{"sequence": "GGCCUUU", "RNAcompete 7-mer binding Z-score": -0.782}
{"sequence": "CAUUUUG", "RNAcompete 7-mer binding Z-score": -0.896}
